Experimental data published in the supplement of paper PMC12217912.
The other results are listed elsewhere or left out. Sequences were assembled here from the parent chain. Inactive controls read about 0.05.

B1: TEV protease; numbered along this chain (parent)
chain: MGESLFKGPRDYNPISSSICHLTNESDGHTTSLYGIGFGPFIITNKHLFRRNNGTLVVQSLHGVFKVKDTTTLQQHLVDGRDMIIIRMPKDFPPFPQKLKFREPQREERICLVTTNFQTKSMSSMVSDTSCTFPSGDGIFWKHWIQTKDGQCGSPLVSTRDGFIVGIHSASNFTNTNNYFTSVPKNFMELLTNQEAQQWVSGWRLNADSVLWGGHKVFMVKPEEPFQPVKEATQL

Variants of: B1
Assay: raw area under fraction-flipped curve 0-4 h after induction (AUC4h, not background-subtracted), DNA-recorder readout of cleavage of the substrate (dimensionless); higher = more cleavage of the substrate by the protease variant
Details: temperature: 34 °C; time window: 0-4 h after rhamnose induction
Method: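 In vivo DNA recorder in E. coli TOP10(DE3) ΔrhaA at 34 °C. Each TEVp single-site mutant (parent TEVp 0) is paired with a single-site variant of the 7-mer TEVs (canonical ENLYFQ|S). The substrate sits between flexible linkers in a Bxb1-sfGFP-TEVs-SsrA fusion, so cleavage stabilises Bxb1 and speeds flipping of a recombination array, read by NGS. The value is the raw area under the fraction-flipped curve over 0-4 h after rhamnose induction (AUC4h), with ≥20 reads per time point. It is not background-subtracted; inactive controls average about 0.047.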
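Also: Bxb1 expression induced with 0.2% (w/v) L-rhamnose at OD600 near 0.5, cultures sampled hourly, flipped fraction per protease–substrate barcode pair counted by paired-end Illumina sequencing.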

Row | Variant | area with substrate CNLYFQS | area with substrate FNLYFQS | area with substrate GNLYFQS | area with substrate HNLYFQS | area with substrate INLYFQS | area with substrate KNLYFQS | area with substrate LNLYFQS | area with substrate MNLYFQS | area with substrate NNLYFQS | area with substrate RNLYFQS | area with substrate SNLYFQS | area with substrate TNLYFQS | area with substrate VNLYFQS | area with substrate WNLYFQS | area with substrate YNLYFQS | area with substrate PNLYFQS | area with substrate QNLYFQS
1 | K148N | 0.0589 | 0.052 | 0.0706 | 0.0628 | 0.0662 | 0.0568 | 0.0624 | 0.0714 | 0.0721 | 0.057 | 0.0727 | 0.0657 | 0.0627 | 0.0548 | 0.0708 | – | –
2 | K148T | 0.0598 | – | 0.0463 | 0.0583 | 0.0729 | 0.0546 | – | – | – | 0.0414 | – | 0.0664 | – | – | – | 0.0439 | –
3 | D149Q | 0.0611 | – | – | 0.0514 | 0.055 | 0.0772 | 0.0558 | 0.0503 | 0.0658 | – | – | 0.0602 | 0.0621 | 0.0553 | 0.0357 | 0.0673 | –
4 | D149S | 0.0689 | – | 0.0599 | 0.0695 | 0.062 | – | 0.0572 | – | – | 0.0586 | – | 0.0707 | 0.0677 | 0.0622 | 0.0647 | – | –
5 | G150F | 0.0507 | 0.0565 | 0.0647 | 0.0485 | – | 0.0739 | 0.0539 | 0.0696 | – | – | 0.065 | 0.0683 | 0.0583 | 0.063 | 0.0589 | 0.0567 | –
6 | G150L | 0.0633 | 0.0615 | 0.057 | 0.0607 | 0.0703 | 0.0629 | 0.0524 | 0.0617 | 0.0512 | 0.0559 | 0.0523 | 0.0618 | – | 0.0636 | 0.0593 | 0.065 | –
7 | Q151H | 0.0582 | – | 0.0637 | 0.0365 | – | 0.0625 | 0.0668 | – | 0.0691 | – | – | 0.043 | 0.0565 | 0.056 | – | – | –
8 | Q151S | 0.0613 | 0.0609 | 0.0395 | 0.0628 | 0.0515 | 0.0554 | 0.0568 | 0.0707 | – | – | – | 0.0687 | 0.0699 | 0.0826 | – | 0.0743 | –
9 | G153N | 0.0631 | – | 0.0505 | – | 0.06 | – | 0.0473 | – | 0.0389 | 0.0482 | 0.0597 | – | – | 0.0526 | 0.0449 | – | –
10 | G153Y | 0.0433 | 0.0604 | – | 0.0368 | – | – | 0.0638 | – | – | – | – | 0.0487 | – | 0.0478 | 0.0432 | 0.0406 | 0.0515
11 | P155E | 0.0524 | 0.0392 | – | 0.0653 | 0.0212 | – | 0.0545 | – | – | – | 0.0562 | 0.049 | – | 0.0544 | 0.0515 | 0.0592 | 0.07
12 | P155F | 0.0514 | 0.0583 | 0.0612 | 0.055 | 0.0583 | 0.0595 | 0.0756 | – | – | 0.051 | 0.06 | 0.0511 | – | – | 0.0626 | 0.0559 | –
13 | P155M | 0.0529 | 0.0558 | 0.0615 | 0.0574 | 0.0571 | 0.0504 | 0.0722 | – | 0.0706 | 0.0396 | – | 0.0694 | – | 0.0631 | 0.0484 | – | –
14 | L156K | 0.0378 | – | 0.0451 | 0.0475 | 0.0456 | 0.0418 | – | – | – | – | 0.057 | 0.0604 | – | 0.052 | – | 0.0559 | 0.0361
15 | V157N | 0.064 | 0.0491 | 0.0504 | 0.0463 | 0.0451 | 0.0582 | 0.0587 | 0.0536 | 0.0521 | 0.0563 | – | 0.0498 | – | 0.0478 | 0.0605 | 0.0556 | –
16 | V157R | 0.0658 | 0.0533 | – | 0.0387 | 0.0365 | 0.0544 | 0.0538 | 0.0518 | 0.0417 | 0.0519 | 0.0771 | 0.0573 | 0.0611 | 0.0568 | 0.0557 | 0.062 | –
17 | S158H | 0.0425 | – | 0.0286 | 0.0587 | – | 0.0629 | 0.0448 | – | – | – | 0.0436 | 0.0503 | – | 0.0437 | 0.0421 | 0.0569 | –
18 | T159E | 0.062 | – | 0.0768 | 0.0393 | 0.0539 | 0.0761 | 0.0664 | 0.0672 | 0.0857 | – | 0.0682 | – | – | 0.0661 | 0.0795 | 0.0686 | –
19 | T159G | 0.0156 | 0.0611 | – | – | – | 0.0609 | – | 0.0738 | 0.0533 | – | 0.0595 | 0.0598 | 0.067 | 0.0666 | – | – | –
20 | T159Y | 0.0558 | 0.0601 | – | 0.0607 | 0.0385 | 0.0617 | 0.063 | – | – | – | 0.0643 | 0.0402 | – | – | 0.0554 | – | 0.0657
21 | G162H | 0.0643 | 0.0569 | 0.0577 | 0.073 | – | 0.0785 | 0.0588 | – | 0.0599 | – | 0.0634 | 0.0595 | 0.0696 | 0.0667 | 0.0665 | 0.0708 | 0.0585
22 | I164E | 0.0355 | 0.0591 | – | 0.0476 | 0.0484 | 0.0371 | 0.0599 | 0.0413 | – | 0.0669 | 0.0557 | 0.0372 | – | 0.0481 | 0.0638 | 0.0525 | –
23 | I164H | 0.0531 | – | 0.0467 | – | – | 0.0523 | – | 0.0591 | – | – | 0.0496 | – | 0.0413 | – | – | 0.076 | –
24 | I164L | 0.052 | 0.0577 | 0.0548 | 0.0647 | 0.065 | 0.0754 | 0.0608 | – | 0.0686 | – | – | 0.0576 | – | 0.0548 | 0.0437 | 0.0685 | –
25 | V165D | 0.0493 | 0.047 | 0.0533 | 0.0402 | – | 0.0437 | – | – | – | 0.0595 | 0.0452 | 0.0639 | – | 0.045 | – | 0.0519 | 0.0544
26 | G166Q | 0.0523 | 0.0382 | – | 0.0629 | – | – | 0.0608 | 0.0263 | 0.0519 | 0.0461 | – | – | 0.0503 | 0.0498 | – | – | –
27 | G166S | 0.0449 | 0.0602 | 0.0334 | 0.0531 | – | – | 0.0287 | – | 0.0444 | – | 0.0669 | 0.0525 | – | 0.0463 | – | – | –
28 | G166T | 0.0279 | – | 0.0566 | 0.0432 | – | – | – | 0.0396 | – | 0.0486 | 0.051 | 0.0833 | – | 0.0755 | – | 0.0549 | –
29 | I167F | 0.0584 | 0.0588 | 0.0591 | 0.0579 | 0.0597 | – | 0.0647 | 0.0619 | 0.0541 | 0.0701 | 0.0652 | 0.0623 | – | 0.0503 | 0.0442 | 0.0591 | –
30 | S169A | 0.0655 | – | – | 0.0593 | 0.0636 | 0.0643 | 0.0611 | 0.0692 | 0.0601 | – | 0.0658 | 0.0713 | – | 0.0441 | 0.0508 | 0.0578 | –
